# Paper PMC12136788
# The other results are listed elsewhere or left out.
# B1: chr6:136509389:136509390:+_ENSMUSG00000030213_ENSMUST00000032335|mus_mus|FALSE|FALSE (ssRNA)
# RNA: GGGAGUUCUACAGUCCGACGAUCGACAUUACUGUUCACUUUAUUUCCCUCAUCACAGGAGUCUUUACUUUGAAUUUGGUCUAAGUGUUCGUCGUCUUCACUCUUGCCUGGACAAUCAUCACUGUUAUUGCUACUCGGCUCUGUCAACAGAGGAUUGAGCAUCA
# B2: chr3:150289932:150289933:+_ENSG00000144895_ENST00000460851|hu_hu|hu_hu_hu_mus_False|8_28 (ssRNA)
# RNA: GGGAGUUCUACAGUCCGACGAUCCUUGUAGUUUUUAACAUCCCAUACUUCCAUUUGUCCUCGAAGAUUUCCAAAUCCAGCCAGCACUAAUAUAUGUCCAUGAGGGCUAUAGUAGGCUGCGUUGCGAGGACCAGUUCCAAAGUCCAACAGAGGAUUGAGCAUCA
# B3: chr3:176767854:176767855:-_ENSG00000177565_ENST00000430069|hu_hu|hu_hu_hu_mus_False|18_38 (ssRNA)
# RNA: GGGAGUUCUACAGUCCGACGAUCGACAUCCUUGUUACUGGGCACGUCCUGCCCUCCUUCCCGUAUGCAGUGUCUAAGCACGAGCUGCGUAGGGCCACUGGUGCUGUUCUCACUGAGAUUCCAUAUUCUUGCCGUGGAGUCUCCCAACAGAGGAUUGAGCAUCA
# B4: chrX:101152592:101152593:-_ENSMUSG00000056537_ENSMUST00000070705|mus_hu|FALSE|FALSE (ssRNA)
# RNA: GGGAGUUCUACAGUCCGACGAUCUAAAUCUGCAGUAUGACAUCUUACAUAGGGAAAAAAGCUUCUUCCUAAAAGAUAACUAUUAAUAAUCAAACCAGCUUUAAUAUGAUUGACCUUUCAAGGUCUUGUUUUGCUUUAAACAAGCAACAGAGGAUUGAGCAUCA
# B5: chr1:202722107:202722108:-_ENSG00000117139_ENST00000367264|hu_mus|FALSE|FALSE (ssRNA)
# RNA: GGGAGUUCUACAGUCCGACGAUCCAUGAUGGUCACCAGCUGGUGGAGCAGGUCCGGCUGGGACACAAAGAGCUCAGGAGCGAGCUUCUUCAUCACGUUUUCUAGCUGCUCAGCAGCGUAGCCUGGAACUCCAUACCAGGUUUUCAACAGAGGAUUGAGCAUCA
# B6: 226565000_226566958_1833_CDS_ENSG00000143799_ENST00000366794|human|control|control (ssRNA)
# RNA: GGGAGUUCUACAGUCCGACGAUCAUACCUGUUUUCCUUGUCGUCCUCCAGAAGCUGCAGCUUGUAGUAGGAGUUGGUUCCUUUAACGAUGUCCACCAGGCCAAGGGUGGCACUGAAGACCUUCCCACCUUUCUCCAGGACAUGCAACAGAGGAUUGAGCAUCA
# B7: chr4:135514694:135514695:+_ENSMUSG00000028672_ENSMUST00000030432|mus_mus|FALSE|FALSE (ssRNA)
# RNA: GGGAGUUCUACAGUCCGACGAUCGUCCCCAAGGGAGAUCUCAUAGCAGCCCAUCGAGUACAACUUCUUGGCAACCUCAGCAACUUUAGCCGGGGAGACCUUCCCCUCGUAGGGGCAUCCGAGGGCACAGGAGACAUACCCUCUCAACAGAGGAUUGAGCAUCA
# B8: 156762238_156762358_2499_CDS_ENSG00000146909_ENST00000275820|human|control|control (ssRNA)
# RNA: GGGAGUUCUACAGUCCGACGAUCUGCAAGGUCAGCUUUCUCUCUCAGCACGUUGGCUUCGUCGGCGCUUCUGUGGGCCUGUGCGUUCUUUAGCAAGAAGUGGCUGAUGAAAAGCUUCAAACCCUCACGUAACACCCCCAGCUUCAACAGAGGAUUGAGCAUCA
# B9: 27785926_27800972_2401_CDS_ENSMUSG00000022263_ENSMUST00000090247|mouse|control|control (ssRNA)
# RNA: GGGAGUUCUACAGUCCGACGAUCCACCGACUCGGCGUACACGUCGUCCAGCAGUUCCUUCUGUAACUCCUCCAGCCAUGUCCAGAGCUCUUUUACGUGCGUGUGAAAUGACACAGACAUGUCCAGCAGGAUCUUUCGUUGUUCCAACAGAGGAUUGAGCAUCA
# B10: chrX:70927055:70927056:+_ENSMUSG00000019558_ENSMUST00000114465|mus_hu|motif|central (ssRNA)
# RNA: GGGAGUUCUACAGUCCGACGAUCCCUUUGCCCAGAGGCGCCAUUUACAUCUGGCAUUCACCUUUGCUAAGAGAUAGAGAUCGGUAUAUACUCUCCGUACUCACGCACGCGUGCACUCGCACCCAAGCUCACACAAUUGAUACUCAACAGAGGAUUGAGCAUCA
# B11: 98576476_98579460_8777_CDS_ENSG00000196367_ENST00000355540|human|control|control (ssRNA)
# RNA: GGGAGUUCUACAGUCCGACGAUCGCAGAUGGCCAGGUAUCCGCGGUACAUGUUCACCUUCCAGGCCAUCUCCUUCGGACAGCUCACUUCCACCUGCACCAGCGCCUCCUUCAUGGCAGUCCAGUUGGACACCCGCCAGGCGCACAACAGAGGAUUGAGCAUCA
# B12: chr2:180453240:180453241:+_ENSMUSG00000027573_ENSMUST00000029090|mus_mus|FALSE|FALSE (ssRNA)
# RNA: GGGAGUUCUACAGUCCGACGAUCCUCACCUCUCUCACACACAUCCCCUCCCAAAAGCCACACAGCCCACACCAAGACAAAAAACCGAUCCAAACUCAAUACCCACACAAAAGUUAUCUUUGAAUUAAGAUUUACAAAUUUAUACAACAGAGGAUUGAGCAUCA
# B13: chr17:45747064:45747065:+_ENSG00000108424_ENST00000290158|hu_mus|motif|central (ssRNA)
# RNA: GGGAGUUCUACAGUCCGACGAUCGCCCACAGUCCACGCUGUUGUGUCUCGAACAACUACACUGGGGUCUUUCAUUAGUUCGGUUAGGGUGGGCAUAGCCUGUAUGACUAAUGGUUUCAGUUGAUUAGGCUCUGGUCCUUCCAACAACAGAGGAUUGAGCAUCA
# B14: chr4:95690885:95690886:+_ENSMUSG00000028572_ENSMUST00000156910|mus_mus|mus_mus_mus_hu_False|18_38 (ssRNA)
# RNA: GGGAGUUCUACAGUCCGACGAUCUUUAGAAAAUGUUAAAUACCAUGCUAAAAUAUUUUCAAAGGCUUAUUUUAUUUUACCAGAAGUCACAGGCAAGCAGACACCAUAAGAAUAUAUAAAUACAAACCUCAACAAUAUAACUGUCAACAGAGGAUUGAGCAUCA
# Biological target: T1, UNK ZnF1-3 (human, UniProt Q9C0B0 31-174)
# T1 sequence: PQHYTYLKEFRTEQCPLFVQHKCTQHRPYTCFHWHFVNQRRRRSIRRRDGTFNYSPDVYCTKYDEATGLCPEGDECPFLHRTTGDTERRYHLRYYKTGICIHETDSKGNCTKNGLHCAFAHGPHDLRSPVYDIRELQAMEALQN
# Assay: nsRBNS (natural sequence RNA bind-n-seq); RBNS binding buffer (assumed for nsRBNS): 25 mM Tris pH 7.5, 150 mM KCl, 3 mM MgCl2, 0.01% Triton X-100, 500 ug/ml BSA, 20 U/ml SUPERase-In, 4 C; UNK is unkempt and MSI1 is Musashi-1; names of the RNAs are library labels; protein concentration not given here; high values mean tight binding
row,Binder,binding signal [enrichment R]
1,B1,0.352
2,B2,0.68
3,B3,0.475
4,B4,0.781
5,B5,0.549
6,B6,0.744
7,B7,0.793
8,B8,0.781
9,B9,0.649
10,B10,0.827
11,B11,0.87
12,B12,2.39
13,B13,0.528
14,B14,2.29
